{"source": "PubChem BioAssay (Tox21)", "note": "Inconclusive results, whose numbers are uncertain, are shown with a selection of clear calls. Where the call is inconclusive, the potency comes from a doubtful curve fit. Active and inactive are the calls of the source. Calls follow the shape of the dose curve; as a rule, active = well fitted curve in the direction sought with a large enough effect in the repeat runs; inconclusive = weak or mixed curves; inactive = no such curve, though single readings can be large; an effect the other way counts as inactive or inconclusive. % is scaled to controls: 0 for no effect and ±100 for the full control effect; potency is read from the fitted curve at half-maximal effect; tags tell the direction and shape of the fitted curve. Also: nearly all actives have a fitted effect of over 50% in size.", "data": [{"molecular_target": "Voltage-gated inwardly rectifying potassium channel KCNH2 (Homo sapiens) (UniProt Q12809)", "sequence (Q12809 whole entry, looked up)": "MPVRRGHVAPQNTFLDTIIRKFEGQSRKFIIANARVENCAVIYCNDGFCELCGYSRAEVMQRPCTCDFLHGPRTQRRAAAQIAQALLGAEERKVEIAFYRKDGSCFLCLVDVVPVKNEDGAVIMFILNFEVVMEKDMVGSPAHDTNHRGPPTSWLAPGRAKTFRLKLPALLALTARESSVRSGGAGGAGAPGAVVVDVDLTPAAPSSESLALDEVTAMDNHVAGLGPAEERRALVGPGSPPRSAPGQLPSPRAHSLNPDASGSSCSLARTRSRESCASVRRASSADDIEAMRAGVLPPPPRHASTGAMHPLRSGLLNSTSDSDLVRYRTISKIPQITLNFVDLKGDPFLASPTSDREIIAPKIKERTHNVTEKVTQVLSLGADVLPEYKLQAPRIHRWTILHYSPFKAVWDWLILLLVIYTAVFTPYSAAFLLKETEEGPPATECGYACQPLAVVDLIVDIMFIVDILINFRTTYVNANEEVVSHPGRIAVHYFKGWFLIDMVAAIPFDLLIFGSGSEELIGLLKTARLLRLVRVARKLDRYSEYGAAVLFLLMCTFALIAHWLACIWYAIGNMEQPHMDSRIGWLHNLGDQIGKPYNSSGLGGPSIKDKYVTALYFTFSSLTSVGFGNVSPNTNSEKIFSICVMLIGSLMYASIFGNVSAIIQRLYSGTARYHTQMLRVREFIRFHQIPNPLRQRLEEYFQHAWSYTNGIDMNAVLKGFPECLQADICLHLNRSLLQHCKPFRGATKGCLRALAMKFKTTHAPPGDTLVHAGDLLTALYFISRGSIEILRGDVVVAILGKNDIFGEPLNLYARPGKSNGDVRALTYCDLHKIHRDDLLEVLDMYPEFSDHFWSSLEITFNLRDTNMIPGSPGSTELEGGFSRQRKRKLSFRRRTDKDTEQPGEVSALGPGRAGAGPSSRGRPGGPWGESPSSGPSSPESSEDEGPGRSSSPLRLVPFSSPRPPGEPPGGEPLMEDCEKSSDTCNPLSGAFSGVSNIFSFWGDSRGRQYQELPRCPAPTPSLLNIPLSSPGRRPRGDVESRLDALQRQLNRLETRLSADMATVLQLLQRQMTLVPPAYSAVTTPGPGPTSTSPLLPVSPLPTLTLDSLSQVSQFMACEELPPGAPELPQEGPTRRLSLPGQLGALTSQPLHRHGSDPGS", "assay": "Human Ether-a-go-go-Related Gene (hERG) channel small molecule antagonists: fluorescence cell-based qHTS assay (AID 1671200)", "details": "hERG-U2OS cells, FluxOR thallium flux fluorescence; series mostly up to 76.8 µM; activity change, negative = inhibition: at the top concentration", "outline": "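Measured: Tl+ flux via fluorescence (480/540 nm) in hERG-expressing U2OS cells after 1 h dye loading at room temperature.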", "values": [{"smiles": "Cc1ccc(O)c(C(=O)c2ccccc2)c1", "Potency": "inconclusive: 44.1 µM [inhibitor, partial curve]"}, {"smiles": "CC(C)(C)c1cc(CCC(=O)NCCCCCCNC(=O)CCc2cc(C(C)(C)C)c(O)c(C(C)(C)C)c2)cc(C(C)(C)C)c1O", "activity change, negative = inhibition": "inactive: 7.04%"}, {"smiles": "Nc1ccc(C(=O)N2CC3CC(CN(Cc4ccccc4)C3)C2)cc1", "Potency": "inconclusive: 9.52 µM [inhibitor, partial curve]"}, {"smiles": "C/C=C1\\C(=O)C[C@H]2[C@@H]3CCC4=CC(=O)CC[C@]4(C)[C@H]3CC[C@]12C", "Potency": "inconclusive: 27 µM [inhibitor, partial curve, poor fit]"}]}, {"molecular_target": "Cytochrome P450 3A4 (Homo sapiens) (UniProt P08684)", "sequence (P08684 whole entry, looked up)": "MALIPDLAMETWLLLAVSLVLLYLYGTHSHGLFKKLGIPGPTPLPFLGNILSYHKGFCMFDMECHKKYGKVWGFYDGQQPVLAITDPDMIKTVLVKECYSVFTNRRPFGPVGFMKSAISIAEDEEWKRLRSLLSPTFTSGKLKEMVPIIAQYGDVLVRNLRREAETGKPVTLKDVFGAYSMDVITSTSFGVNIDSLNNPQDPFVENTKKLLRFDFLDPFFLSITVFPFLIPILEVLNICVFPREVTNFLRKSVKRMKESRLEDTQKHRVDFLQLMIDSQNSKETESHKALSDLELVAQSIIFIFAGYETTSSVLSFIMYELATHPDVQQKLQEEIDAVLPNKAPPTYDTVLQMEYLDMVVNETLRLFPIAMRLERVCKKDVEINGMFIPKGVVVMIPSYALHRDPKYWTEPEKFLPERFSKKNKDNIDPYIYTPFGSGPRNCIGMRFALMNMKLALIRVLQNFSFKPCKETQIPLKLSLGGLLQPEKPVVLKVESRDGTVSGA", "assay": "Cytochrome P450 Family 3 Subfamily A Member 4 (CYP3A4) small molecule antagonists: luciferase reporter qHTS assay (AID 1671201)", "details": "P450-Glo CYP3A4 enzyme, luciferin luminescence, 1 h; series mostly up to 115 µM; activity change, negative = inhibition: at the top concentration", "outline": "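Setup: enzyme-substrate mix, compound pin transfer, 10 min RT. Reaction: NADPH regeneration solution, 1 h RT. Readout: detection reagent stops turnover, luminescence measured after 20 min, expressed in relative luminescence units.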", "values": [{"smiles": "CC(C)=CCl", "Potency": "inactive"}, {"smiles": "O=CC1CC=CCC1", "note": "(stereo not given)", "Potency": "inconclusive: 62.7 µM [inhibitor]"}, {"smiles": "O=C(O)C(=O)Nc1cccc(-c2nn[nH]n2)c1", "activity change, negative = inhibition": "inactive: 3.92% [at 52.9 µM]"}, {"smiles": "Cc1ccc(O)c(C(=O)c2ccccc2)c1", "Potency": "active: 32 µM"}, {"smiles": "C[Si]1(C)O[Si](C)(C)O[Si](C)(C)O[Si](C)(C)O1", "Potency": "inactive"}, {"smiles": "C=CC(C)(O)CC/C=C(\\C)CC", "note": "(stereo not given)", "Potency": "active: 22.5 µM"}]}]}
